# Some of the results follow.
# B1: SSP1 (Sclerotinia sclerotiorum), XP_001584968 (protein)
# chain: MGSSHHHHHHSSGLVPRGSHMSLLTTELACTSAPDQVLHLFFQDGQNILEARSPDGGNVWTTQDTIIAKDGDYNGSSMTCYYVDKDANFDNQPSIHLLYMNKDKQLTEKVKRMKGDNPIWEDAKVPDEVRKGPEQYSKLTSGSFNQGTGWNPNGSQWAYFSASKDGKMGIVEIRRTPKDPWHTETILEEKWGDELPGTALACVIGNGKIRVFLQHHDYSIILYENQNNTWHDRGTFIPKDKVQATTPLACTMTKDGSVHLFYVSKSNKIIHCTDGKKEEELINFFPGSKLGATSVENKITLFFRNLNPVNEVGTLENENGSWKHGTTVIPA
# What was measured:
# Assay in all cases: glycan array binding signal (z-score within array); higher = stronger binding
# Conditions in all cases: glycan notation: IUPAC condensed, linker removed
# [1] = biological target: GalNAc(a1-3)GalNAc(b1-3)Gal(a1-4)Gal(b1-4)GlcNAc
# How it was run: (§1)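 The binding signal is a Z-score computed within each array and averaged over linkers. Arrays of the same protein sequence at different concentrations or buffers were also averaged together. Data originate from 3228 arrays in the Consortium for Functional Glycomics database, kept only where the protein sequence was available.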
# [2] = biological target: GalNAc(b1-3)Gal
# How it was run: as §1
# [3] = biological target: GalNAc(b1-3)Gal(a1-4)Gal(b1-4)GlcNAc
# How it was run: as §1
# [4] = biological target: GalNAc(b1-3)Gal(a1-4)Gal(b1-4)GlcNAc(b1-3)Gal(b1-4)Glc
# How it was run: as §1
# [5] = biological target: GalNAc(b1-3)Gal(a1-6)Gal(b1-4)Glc
# How it was run: as §1
# [6] = biological target: GalNAc(b1-3)GalNAc
# How it was run: as §1
# [7] = biological target: GalNAc(b1-3)GlcNAc
# How it was run: as §1
# [8] = biological target: GalNAc(b1-4)Gal(b1-4)Glc
# How it was run: as §1
# [9] = biological target: GalNAc(b1-4)GlcNAc
# How it was run: as §1
# [10] = biological target: GalNAc(b1-4)GlcNAc(b1-2)Man
# How it was run: as §1
# [11] = biological target: GalNAc(b1-4)GlcNAc(b1-2)Man(a1-3)[GalNAc(b1-4)GlcNAc(b1-2)Man(a1-6)]Man(b1-4)GlcNAc(b1-4)GlcNAc
# How it was run: as §1
# [12] = biological target: GalNAc(b1-4)GlcNAc(b1-3)GalNAc(b1-4)GlcNAc
# How it was run: as §1
# [13] = biological target: GalNAc(b1-4)GlcNAc6S
# How it was run: as §1
# [14] = biological target: GalNAc(b1-6)GalNAc
# How it was run: as §1
# [15] = biological target: GalNAc3S(b1-4)GlcNAc
# How it was run: as §1
# [16] = biological target: GalNAc3S(b1-4)GlcNAc3S
# How it was run: as §1
# [17] = biological target: GalNAc3S(b1-4)[Fuc(a1-3)]GlcNAc
# How it was run: as §1
# [18] = biological target: GalNAc4S6S(b1-4)GlcNAc
# How it was run: as §1
# [19] = biological target: GalNAc6S(b1-4)GlcNAc
# How it was run: as §1
# [20] = biological target: Glc(a1-4)Glc
# How it was run: as §1
# [21] = biological target: Glc(a1-4)Glc(a1-4)Glc(a1-4)Glc
# How it was run: as §1
# [22] = biological target: Glc(a1-6)Glc(a1-6)Glc
# How it was run: as §1
# [23] = biological target: Glc(a1-6)Glc(a1-6)Glc(a1-6)Glc
# How it was run: as §1
# [24] = biological target: Glc(b1-4)Glc
# How it was run: as §1
# [25] = biological target: Glc(b1-6)Glc
# How it was run: as §1
# [26] = biological target: GlcA(b1-3)Gal
# How it was run: as §1
# [27] = biological target: GlcA(b1-3)GlcNAc
# How it was run: as §1
# [28] = biological target: GlcA(b1-6)Gal
# How it was run: as §1
# [29] = biological target: GlcA3S(b1-3)Gal(b1-4)GlcNAc(b1-2)Man
# How it was run: as §1
# [30] = biological target: GlcA3S(b1-3)Gal(b1-4)GlcNAc(b1-3)Gal(b1-4)Glc
# How it was run: as §1
# [31] = biological target: GlcNAc(a1-3)Gal(b1-4)GlcNAc
# How it was run: as §1
# [32] = biological target: GlcNAc(a1-4)Gal(b1-3)GlcNAc
# How it was run: as §1
# [33] = biological target: GlcNAc(a1-4)Gal(b1-4)GalNAc
# How it was run: as §1
# [34] = biological target: GlcNAc(a1-4)Gal(b1-4)GlcNAc
# How it was run: as §1
# [35] = biological target: GlcNAc(a1-4)Gal(b1-4)GlcNAc(b1-3)Gal(b1-4)Glc
# How it was run: as §1
# [36] = biological target: GlcNAc(a1-4)Gal(b1-4)GlcNAc(b1-3)Gal(b1-4)GlcNAc
# How it was run: as §1
# [37] = biological target: GlcNAc(a1-4)Gal(b1-4)GlcNAc(b1-3)Gal(b1-4)GlcNAc(b1-3)Gal(b1-4)GlcNAc
# How it was run: as §1
# [38] = biological target: GlcNAc(a1-4)Gal(b1-4)GlcNAc(b1-3)Gal(b1-4)[Fuc(a1-3)]GlcNAc(b1-3)Gal(b1-4)[Fuc(a1-3)]GlcNAc
# How it was run: as §1
binder,measurement,setting,value
B1,glycan array binding signal (z-score),[1],-0.19
same,glycan array binding signal (z-score),[2],2.2
same,glycan array binding signal (z-score),[3],-0.233
same,glycan array binding signal (z-score),[4],0.205
same,glycan array binding signal (z-score),[5],-0.58
same,glycan array binding signal (z-score),[6],-0.368
same,glycan array binding signal (z-score),[7],0.44
same,glycan array binding signal (z-score),[8],-0.27
same,glycan array binding signal (z-score),[9],-0.197
same,glycan array binding signal (z-score),[10],0.345
same,glycan array binding signal (z-score),[11],0.185
same,glycan array binding signal (z-score),[12],0.184
same,glycan array binding signal (z-score),[13],-0.132
same,glycan array binding signal (z-score),[14],-0.286
same,glycan array binding signal (z-score),[15],-0.311
same,glycan array binding signal (z-score),[16],0.044
same,glycan array binding signal (z-score),[17],0.067
same,glycan array binding signal (z-score),[18],-0.415
same,glycan array binding signal (z-score),[19],-0.287
same,glycan array binding signal (z-score),[20],-0.404
same,glycan array binding signal (z-score),[21],-0.204
same,glycan array binding signal (z-score),[22],-0.371
same,glycan array binding signal (z-score),[23],-0.043
same,glycan array binding signal (z-score),[24],-0.238
same,glycan array binding signal (z-score),[25],0.346
same,glycan array binding signal (z-score),[26],-0.203
same,glycan array binding signal (z-score),[27],0.484
same,glycan array binding signal (z-score),[28],-0.415
same,glycan array binding signal (z-score),[29],-0.535
same,glycan array binding signal (z-score),[30],-0.315
same,glycan array binding signal (z-score),[31],-0.477
same,glycan array binding signal (z-score),[32],-0.07
same,glycan array binding signal (z-score),[33],0.074
same,glycan array binding signal (z-score),[34],-0.479
same,glycan array binding signal (z-score),[35],-0.521
same,glycan array binding signal (z-score),[36],-0.384
same,glycan array binding signal (z-score),[37],-0.238
same,glycan array binding signal (z-score),[38],2.28

# Source: the supplement of paper PMC8728848
